Among all 71,000 compounds or so, about 1,800 (2.5%) were called active. Inconclusive means that the source gave no clear call. Such entries were picked first, then a sample of the others. The call rests on the fitted dose curve; in most records, active means well fitted activation curve with a large enough effect in the signal ratio, with a control signal flat (not every such curve was filed as active); inconclusive means small, poorly fitted or top-dose-only effect, or effect the other way, or a change in a side signal; inactive means flat fitted curve, though single readings scatter; the % refers to the signal ratio. Potencies beside an inconclusive call are fits to weak or partial responses and may not hold up.
test: Cell signaling CRE-BLA (Fsk stim); conditions: CHO CRE-bla reporter (cAMP response element driving beta-lactamase), forskolin EC10, beta-lactamase ratio; activity change, negative = inhibition: at 38.2 µM (top of the series) unless noted; on activity change, negative = inhibition: % of control where 0% means no effect
Method in brief: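 Using CellSensor CRE-bla CHO cells in Opti-MEM with 0.5% dialyzed FBS, compounds were titrated with EC10 NKH 477 for 3 h at 37 °C. CCF4 ratio (460/530 nm) gave %Activity; AC50 derived.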
Potency means the concentration at half of the fitted maximal effect; tags describe the fitted curve by direction and shape.

Row | Compound | activity change, negative = inhibition | Potency
1 | CC(C)[C@H](CO)Nc1nc(Nc2ccc(C(=O)O)c(Cl)c2)c2ncn(C(C)C)c2n1 | inconclusive: -4.36% | –
2 | Cc1ccc(-c2cc(C(F)F)nc(NCc3cccnc3)n2)cc1 | – | inconclusive: 3.98 µM [rising, partial curve]
3 | N#C[C@H](Cc1ccc(O)cc1)c1ccc(O)cc1 | inconclusive: 5.21% | –
4 | COc1ccc(NC(=O)N2CC3(CCN(C(=O)c4ccc(OC)cc4)CC3)C2)cc1 | inactive | –
5 | CCOC(=O)c1ccc(NS(=O)(=O)c2ccc3c(c2)oc(=O)n3C)cc1 | inactive | –
6 | CC(=O)N1CCC2(CCCN(c3ccccn3)C2)CC1 | inactive | –
7 | O=c1[nH]c2ccccc2n1CCCN1CCN(C(c2ccccc2)c2ccccc2)CC1 | inactive | –
8 | Cc1c(C(=O)NC2CC2)oc2ccc(S(=O)(=O)N3CCCCCC3)cc12 | – | inconclusive: 12.6 µM [rising, single point]
9 | COc1cc(-c2nnc(SCC(=O)c3ccc(C)cc3)o2)cc(OC)c1OC | – | active: 2.51 µM
10 | CCN1CCN(CCCNC(=O)C(NC(=O)C2CCC(C)CC2)C(C)C)CC1 (stereo not given) | inconclusive: 12.7% | –
11 | CCC(C)NC(=O)c1cnc2n(c1=O)CCS2 (stereo not given) | – | inconclusive: 12.6 µM [rising, single point]
12 | O=C(NCc1ccco1)C1CCN(C(=O)c2cc3sccc3n2Cc2ccc(F)cc2)CC1 | inconclusive: -12.8% | –
13 | COc1cccc(Cn2c(=O)c(C)nc3cnc(Nc4ccccc4)nc32)c1 | – | inconclusive: 5.01 µM [rising, partial curve]
14 | O=C(NCc1ccncc1)c1ccc(Br)o1 | inconclusive: -2.62% [at 7.6 µM] | –
15 | COc1ccc(-n2c(SC3CCOC3=O)nc3ccccc32)cc1 (stereo not given) | inconclusive: 21.2% | –
16 | CN(Cc1ccccc1)c1ncnc2c1cnn2-c1ccccc1 | – | active: 10 µM
17 | Cc1ccccc1-c1nc(CN2CCC(C(=O)N3CCC(C(N)=O)CC3)CC2)c(C)o1 | inactive | –
18 | N[C@H](C(=O)O)[C@@H]1[C@@H](C(=O)O)C1(F)F | inactive | –
19 | CCOC(=O)N1CCN(C(=O)Cc2ccsc2)CC1 | – | inconclusive: 3.16 µM [falling, partial curve]
20 | Cc1ccc(C)c(NS(=O)(=O)c2cc(C(N)=O)ccc2C)c1 | – | inconclusive: 2.51 µM [falling, single point]
21 | O=C(COC(=O)CCC(=O)c1cccs1)NCc1ccco1 | inconclusive: -1.95% | –
22 | O=C(CCCCn1c(=O)[nH]c2ccsc2c1=O)NCC1CCCO1 (stereo not given) | inconclusive: -4.72% | –
23 | CC(C)(C)c1ccccc1NC(=O)c1cccnc1 | – | inconclusive: 25.1 µM [rising, single point]
24 | COc1ccccc1-c1nnc2sc(-c3cc4ccccc4o3)nn12 | – | active: 3.98 µM
25 | O=C(C1CCCCC1)N1CCC(c2nc3c(nnn3Cc3ccccc3Cl)c(=O)[nH]2)CC1 | – | inconclusive: 12.6 µM [rising, single point]
26 | CCCCOC(=O)C(C#N)c1nc2ccccc2nc1N1CCOCC1 (stereo not given) | – | inconclusive: 10 µM [rising, partial curve]
27 | CCn1c(=O)c(C)nn2c3ccccc3nc12 | – | active: 12.6 µM
28 | c1cc2c(cc1C1CCCCC1)c1c3n2CCN[C@H]3CCC1 | – | inconclusive: 25.1 µM [falling, single point]

Row | Compound | activity change, negative = inhibition | Potency
29 | CCOC(=O)CSc1nnc([C@@H](NC(=O)OC(C)(C)C)C(C)C)o1 | inconclusive: -3.28% | –
30 | CN(C)C(=O)c1ccc(-c2nc(N3CCOCC3)c3ccccc3n2)cc1 | – | active: 10 µM
31 | O=S(=O)(NC1CCCCC1)c1ccc(Br)cc1 | inconclusive: -4.95% [at 7.6 µM] | –
32 | Cc1ccc(Cn2nnc3c(=O)n(CC(=O)N4CCCCC4)cnc32)cc1 | – | inconclusive: 1 µM [rising, full curve]
33 | CCOc1ccccc1N(C(=O)CNC(=O)c1ccco1)C(C(=O)NC(C)(C)C)c1ccncc1 (stereo not given) | inactive | –
34 | COC(=O)CNC(=O)C1(CC(C)C)C=CCN1C(=O)c1ccccc1 (stereo not given) | inactive | –
35 | Cc1ccc(-c2nnc3sc(C4COc5ccccc5O4)nn23)cc1 (stereo not given) | inactive | –
36 | CCOc1cc2c(cc1OCC)C(c1ccc(O)c(OC)c1)NCC2 (stereo not given) | – | inconclusive: 10 µM [rising, single point]
37 | CCOc1cc(C(=O)N2CCN(c3ccccc3)CC2)cc(OCC)c1OCC | inactive | –
38 | Cc1sc2ncnc(Oc3ccc(-n4ccnc4)cc3)c2c1C | inactive | –
39 | CCOC(=O)C1CCCN(C(=O)CSc2nccn2C)C1 (stereo not given) | inactive | –
40 | COC(=O)C1=C(C)NC(C)=C(C(=O)OC(C)C)[C@H]1c1cccc2nonc12 | inactive | –
41 | CCc1nc(N2CCCC(C)C2)c2oc3ccccc3c2n1 (stereo not given) | – | active: 10 µM
42 | CCOC(=O)N1CCN(C(=O)c2cc3c(=O)[nH]c4ccccc4c3s2)CC1 | inactive | –
43 | O=C(Nc1ccccc1F)NC1CCN(Cc2nnnn2Cc2ccc(F)cc2)CC1 | inactive | –
44 | O=C1CCCc2nc(N3CCc4ccccc43)ncc21 | inactive | –
45 | O=C(Nc1ccc2c(c1)OCO2)c1cnn2c1NC(c1ccco1)CC2C(F)(F)F (stereo not given) | inactive | –
46 | CN1CCN(Cc2nc3c([nH]2)c(=O)[nH]c(=O)n3C)CC1 | – | inconclusive: 0.0126 µM [rising, full curve, poor fit]
47 | Oc1c(C(c2cccs2)N2CCOCC2)sc2ncnn12 (stereo not given) | – | active: 12.6 µM
48 | Cc1cc(=O)oc2c(CN(C)Cc3ccccc3)c(O)ccc12 | inconclusive: 15% | –
49 | CCCCNc1cc(C)nc(NCc2ccccc2)n1 | inconclusive: -0.764% | –
50 | CCC1(c2ccc(F)cc2)NC(=O)N(CC(=O)c2ccc[nH]2)C1=O (stereo not given) | inconclusive: -13.4% | –
51 | CCOc1ccc(C2c3c(oc4ccccc4c3=O)C(=O)N2c2ccc(C)cn2)cc1OC (stereo not given) | – | active: 2 µM
52 | COCCn1nnnc1C(c1ccccc1)N1CCN(Cc2ccc3c(c2)OCO3)CC1 (stereo not given) | inactive | –
53 | Clc1ccc(-c2nnc3sc(-c4ccco4)nn23)c(Cl)c1 | inconclusive: 9.97% | –
54 | CCC1CCCCN1Cc1nc2c(c(=O)n(C)c(=O)n2C)n1Cc1ccccc1 (stereo not given) | – | inconclusive: 10 µM [rising, partial curve]
55 | Cc1ccccc1-c1nc(Nc2ccncc2)c2ccccc2n1 | – | active: 3.98 µM
